The campaign covered roughly 310,000 compounds. About 2,200 (0.71%) showed an effect of 50% or more. Effects have a minus sign here. This is one part of the list.
Each compound was assayed against human ether-à-go-go-related gene (hERG) potassium channel (human, UniProt Q12809) (assay: primary screen, population patch clamp on CHO cells stably expressing hERG).
Sequence of human ether-à-go-go-related gene (hERG) potassium channel (Q12809 whole entry, looked up): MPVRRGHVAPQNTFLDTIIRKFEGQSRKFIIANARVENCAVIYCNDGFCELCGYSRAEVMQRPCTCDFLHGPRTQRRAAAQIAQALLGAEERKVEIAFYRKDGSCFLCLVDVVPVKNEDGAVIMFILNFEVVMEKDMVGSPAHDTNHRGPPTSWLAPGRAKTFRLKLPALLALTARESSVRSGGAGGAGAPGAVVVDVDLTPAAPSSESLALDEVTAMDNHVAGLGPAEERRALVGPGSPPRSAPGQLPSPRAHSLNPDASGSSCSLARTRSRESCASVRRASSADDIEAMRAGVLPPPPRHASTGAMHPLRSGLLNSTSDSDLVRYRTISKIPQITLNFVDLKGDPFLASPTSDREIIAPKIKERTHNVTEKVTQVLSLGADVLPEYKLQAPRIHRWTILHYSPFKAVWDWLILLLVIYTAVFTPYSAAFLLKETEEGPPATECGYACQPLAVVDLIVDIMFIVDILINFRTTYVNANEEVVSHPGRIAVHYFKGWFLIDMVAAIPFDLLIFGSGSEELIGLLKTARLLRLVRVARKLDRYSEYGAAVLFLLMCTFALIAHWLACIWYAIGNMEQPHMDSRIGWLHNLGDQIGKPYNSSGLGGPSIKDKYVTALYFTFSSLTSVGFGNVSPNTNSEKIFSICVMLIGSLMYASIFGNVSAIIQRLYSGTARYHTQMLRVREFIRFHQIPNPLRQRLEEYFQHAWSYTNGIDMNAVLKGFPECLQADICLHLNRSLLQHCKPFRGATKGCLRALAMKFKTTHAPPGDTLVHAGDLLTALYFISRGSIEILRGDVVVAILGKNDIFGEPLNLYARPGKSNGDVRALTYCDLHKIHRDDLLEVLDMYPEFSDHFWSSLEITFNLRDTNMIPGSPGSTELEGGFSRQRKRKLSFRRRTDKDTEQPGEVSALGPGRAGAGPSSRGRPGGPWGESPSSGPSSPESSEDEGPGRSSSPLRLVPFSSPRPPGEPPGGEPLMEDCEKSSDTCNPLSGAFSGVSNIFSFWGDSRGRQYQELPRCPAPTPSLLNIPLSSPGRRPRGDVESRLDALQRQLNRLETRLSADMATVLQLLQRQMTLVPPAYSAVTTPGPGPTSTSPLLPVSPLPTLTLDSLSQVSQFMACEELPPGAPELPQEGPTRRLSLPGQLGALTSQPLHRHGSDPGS

SMILES	hERG current change (%, negative = inhibition) at 1uM
Cc1cccc(N(C(=O)c2sc(C)nc2C)C(C(=O)NCc2ccco2)c2ccccc2)c1 (stereo not shown)	5.72%
Cc1cc(C)c2cc(C(=O)N3CCC(N4CCCCC4)CC3)[nH]c2c1	-58.8%
Nc1nnc(SCC(=O)c2ccc3ccccc3c2)s1	5.27%
Cc1nc2cc(F)ccc2n1C1CCN(S(=O)(=O)c2ccccc2)CC1	-0.561%
O=C1CSC(c2cn(-c3ccccc3)nc2-c2cccs2)N1CC1CCCO1 (stereo not shown)	6.3%
COc1cccc(CN2CCC(CO)(CC3CCCCO3)CC2)c1 (stereo not shown)	6.77%
CCCCc1c(O)nc(SC2CC(=O)N(c3ccc(C(=O)OCC)cc3)C2=O)[nH]c1=O (stereo not shown)	15.9%
Cn1nccc1C(=O)N1CCc2ccccc21	11%
OCC[C@@H]1C[C@H](O)[C@@H](O)[C@@]2(Cc3ccccc3CO2)O1	16%
CCc1cc(=O)[nH]c(SCCCF)n1	1.4%
C/C=C/C=C/C(=O)OCC(=O)Nc1ccc(Cl)cc1	20%
COc1ccc2c(-c3ccccc3)cc(SCC(N)=O)nc2c1	5.41%
CC1CCCC(C)N1CCCNC(=O)Cn1ncc2c([nH]c3ccccc32)c1=O (stereo not shown)	11%
O=C1CSC(c2ccco2)N1 (stereo not shown)	11.7%
COc1ccc(CNC(=O)C2CC(=O)N(c3ccc(OCC(=O)N4CCCCC4)cc3)C2)cc1 (stereo not shown)	3.79%
O=C(O)c1cc(NN=Nc2cccc([N+](=O)[O-])c2)cc([N+](=O)[O-])c1	11.4%
Cc1ccc(S(=O)(=O)c2nc(-c3ccco3)oc2SC(C)C)cc1	17.3%
CCOCCCNS(=O)(=O)c1ccc(-n2cnnn2)c(OC)c1	10.1%
Cc1ccc(S(=O)(=O)Cn2nnnc2C(CC(C)C)N2CCN(c3ccc(F)cc3)CC2)cc1 (stereo not shown)	4.96%
CCN(CCCNC(=O)c1[nH]c(C)c(C(C)=O)c1C)c1cccc(C)c1	10.4%
O=C(CN1CCN(S(=O)(=O)c2ccccc2F)CC1)Nc1ccccc1C(=O)c1ccccc1	-1.79%
CCn1nnc(-c2ccccc2NC(=O)c2cc(OC)c(OC)c(OC)c2)n1	6.29%

SMILES	hERG current change (%, negative = inhibition) at 1uM
CC1CCN(CCc2nc3cc(NS(=O)(=O)c4ccc(F)cc4)ccc3n2C)CC1	-54.8%
Cc1cc(C(F)(F)F)nc(NCc2cccnc2)n1	17%
CC(C)Oc1cccc(C(=O)C2CCCN(C(=O)c3ccnn3C)C2)c1 (stereo not shown)	5.9%
Cn1cncc1C#Cc1c(C=O)n(C)c2ccccc12	26.8%
CC(=O)c1ccccc1NC(=O)c1ccc(N2CCCC2=O)cc1	7.48%
CC(C)CNC(=S)N1CCN(c2nc(-c3ccc(Cl)cc3)cs2)CC1	18.9%
CN(C)c1nc(N)nc(CSc2ncc(Cl)cc2Cl)n1	5.88%
COc1cc(C2C(C(C)=O)=C(O)C(=O)N2c2ccc(Br)cn2)ccc1O (stereo not shown)	-7.16%
Cn1c(=O)c2c(nc(Oc3ccc4ccccc4c3)n2C)n(C)c1=O	13.1%
CCN(CC(=O)NC(=O)NCc1ccccc1)Cc1ccccc1	2.5%
O=C(Nc1ccon1)c1ccc(Cl)s1	6.28%
Cc1ccc(-n2nc(C(=O)N3CCOCC3)cc2-c2ccc(Cl)cc2)cc1	-87.4%
O=C(O)c1ccccc1C(=O)Nc1ccccn1	9.16%
Fc1ccc(NCc2cccnc2)cc1F	9.06%
O=C(COC(=O)CC1Sc2ccccc2NC1=O)NCc1ccccc1 (stereo not shown)	-14.6%
O=C(Nc1nn[nH]n1)c1cccc([N+](=O)[O-])c1	-1.74%
Oc1ccc(N=Nc2n[nH]c(-c3ccccc3)n2)cc1	7.56%
Cc1cc2c(c(SCC(N)=O)n1)C(=O)OC2	6.51%
OC(CN1CCN(c2ccccc2Cl)CC1)c1ccccc1 (stereo not shown)	3.03%
O=C(O)C(=O)O.Oc1ccccc1CN1CCN(C(O)(c2ccccc2)c2ccccc2)CC1	-1.63%
C/C=C(/C)C(=O)OC1Cc2c(ccc3ccc(=O)oc23)OC1(C)C (stereo not shown)	14%
COC(=O)c1cc(NC(=O)c2ccccc2)c(=O)oc1C	10.1%

SMILES	hERG current change (%, negative = inhibition) at 1uM
Cc1sc2c(c1C)CN(Cc1ccncc1)CN2C(=O)c1ccco1	-8.17%
C[C@]12CC[C@H](O)C[C@H]1CC[C@@H]1[C@@H]2C[C@@H](O)[C@]2(C)[C@@H](C3=CC(=O)OC3)CC[C@]12O	20.3%
Nc1c(C(=O)NCCN2CCOCC2)c2nc3ccccc3nc2n1-c1ccc2c(c1)OCO2	-2.08%
COc1cccc(C(C(=O)NCC2CCCO2)N(C(=O)Cn2nnc3ccccc32)c2ccc(NC(C)=O)cc2)c1 (stereo not shown)	19.6%
O=C(NCc1ccccc1C(F)(F)F)C1CC(c2ccccc2C(F)(F)F)=NO1 (stereo not shown)	3.14%
COc1cc(NC(=O)CSCc2ccc(Cl)cc2Cl)c(C(=O)O)cc1OC	11.8%
CC(C)(C)c1nc(N2CCN(C(=O)c3ccco3)CC2)c2nnn(Cc3ccccc3Cl)c2n1	3.23%
O=C(CSc1nc(COc2ccccc2)nc2ccccc12)NC1CCCC1	4.97%
COC(=O)C1=C(COc2ccc(F)cc2)NC(=O)NC1c1ccc(C)cc1C (stereo not shown)	8.46%
NCCCC[C@@H]1NC(=O)c2cc([N+](=O)[O-])cc(I)c2SC[C@@H](C(=O)NCC(N)=O)NC(=O)CNC1=O	13.4%
Cc1ccc(-c2c(C)nn3c(N4CCOCC4)cc(C)nc23)cc1	11.3%
COc1ccc(NC(=O)CN(Cc2ccco2)Cc2ccco2)cc1S(=O)(=O)N1CCCCC1	-5.36%
CCCCCNC(=O)CC1Nc2c3ccccc3nc(=S)n2C1=O (stereo not shown)	5.28%
CCOC(=O)CSc1nc2ccccc2c(=O)n1CC1CCC(C(=O)NCc2ccco2)CC1 (stereo not shown)	-8.62%
COC(=O)N1CC(c2ccccc2)CC1=O (stereo not shown)	8.42%
O=C(c1cc2cc3ccc(Cl)cc3nc2o1)N1CCCCCC1	15%
OCCC1CN(Cc2nc3ccccc3s2)CCN1CCc1ccccc1 (stereo not shown)	-58.3%
Cc1ccc(Cn2nc(C)cc2C(=O)Nc2ccccc2Cl)cc1	16.1%
COC(=O)c1ccc(COc2ccc(-c3nn[nH]n3)cc2)cc1	5.98%
CCCc1nc(SCC(=O)N2CCOCC2)c2c(C)c(C)sc2n1	-2.97%
CN(C)C(=O)CSc1ccc(S(=O)(=O)N2CCOCC2)cn1	14.3%
C[C@@H](C(=O)Nc1cccnc1)n1c(=O)[nH]c2ccccc2c1=O	15.4%

SMILES	hERG current change (%, negative = inhibition) at 1uM
CCOC(=O)c1c(CSc2ccccc2)oc2cc(Br)c(O)c(CN(C)C)c12.Cl	13.1%
Cc1ccc(-c2cc(C(=O)Nc3nn[nH]n3)c3ccccc3n2)c(C)c1	8.15%
CCOC(=O)C1CCN(C(=O)COC(=O)c2oc3ccc(OC)cc3c2C)CC1	-7.34%
CC(=O)c1ccc(-n2c(C)c(C(C)=O)c3cc(O)ccc32)cc1	12.7%
CCc1c(C)sc(NC(=O)c2cccs2)c1C#N	10.7%
Cc1ccc(-c2cc(C(=O)N3CC4(C)CC3CC(C)(C)C4)no2)cc1 (stereo not shown)	11.1%
Cc1cccc(NC(=O)c2ccc(OCC(=O)NCc3ccccc3)cc2)c1C	4.04%
COc1ccc(OC)c(S(=O)(=O)Nc2cc3c4c(c2)C(C)C(=O)N4CCC3)c1 (stereo not shown)	9.46%
Cc1ccc2c(=O)oc(N(C)C)nc2c1	-3.68%
CCC(=O)Nc1cc(C(F)(F)F)ccc1N1CCOCC1	10.7%
O=S(=O)(NC1CC1)c1cccc(S(=O)(=O)N2CCCC2)c1	3.74%
CC(Sc1nnc(C2CC2)n1C1CC1)C(=O)Nc1cccc(S(=O)(=O)N2CCOCC2)c1 (stereo not shown)	5.02%
CC(=O)Nc1cc(C(=O)OCc2cccc([N+](=O)[O-])c2)ccc1C	14.2%
O=C(CCCc1nc(-c2ccccc2Cl)no1)NCc1cccnc1	10.2%
O=S(=O)(NC1=NCCCCC1)c1ccc2ccccc2c1	8.21%
Cc1cccnc1NC(=O)C1CCN(S(=O)(=O)c2c(C)noc2/C=C/c2ccco2)CC1	8.83%
Cc1cc(Br)ccc1NC(=O)CN(C)C(=O)CN1C(=O)NC2(CCCC2)C1=O	14.1%
CSc1sc(C(=O)NC(=O)NCc2ccncc2)c(C)c1-c1ccon1	14.1%
Cc1ccc(C(=O)NC(C)c2ccncc2)o1 (stereo not shown)	13.9%
COc1ccc(CCNC(=O)COc2ccc(-c3ccccc3)cc2)cc1OC	13.7%
O=C(CN1CCCCCC1)Nc1ccc(S(=O)(=O)N2CCOCC2)cc1	9.84%
COc1ccc(-n2c(/C=C/c3ccc(O)cc3)nc3ccccc3c2=O)cc1	0.34%

— PMC4336329 (PLoS ONE, 2015)
